Laboratory results as given in the supplement of paper PMC4967469.

What was measured:
Experiment in all cases: Viability of human cancer cell lines after 72 h of drug (GDSC screen)
Bexarotene = compound: C=C(c1ccc(C(=O)O)cc1)c1cc2c(cc1C)C(C)(C)CCC2(C)C [Bexarotene]; conditions: top dose 8 µM
Experimental: (§1)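 Human cancer cell lines in 384-well plates, medium with 10% serum, drug for 72 h over a 256-fold dose range (nine 2-fold or five 4-fold steps up to the top dose). Adherent lines were fixed and stained with the nucleic acid dye Syto60, suspension lines read with resazurin; signal relative to control wells, capped at 0 and 100%. One two-parameter sigmoid per drug and line, fitted in a mixed model over all curves with the slope shared within a line.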

NPK76-II-72-1 = compound: COc1cc(C(=O)NC2CCN(C)CC2)ccc1Nc1ncc2c(n1)N(C1CCCC1)C(C)CC(=O)N2C [NPK76-II-72-1]; conditions: top dose 10.24 µM; top dose inferred
Experimental: as §1

Etoposide = compound: COc1cc([C@@H]2c3cc4c(cc3[C@@H](O[C@@H]3O[C@@H]5CO[C@@H](C)O[C@H]5[C@H](O)[C@H]3O)[C@H]3COC(=O)[C@H]23)OCO4)cc(OC)c1O [Etoposide]; conditions: top dose 16 µM
Experimental: as §1

BMS-345541 = compound: Cc1ccc2nc(NCCN)c3ncc(C)n3c2c1 [BMS-345541]; conditions: top dose 16 µM
Experimental: as §1

AZD7762 = compound: NC(=O)Nc1cc(-c2cccc(F)c2)sc1C(=O)N[C@H]1CCCNC1 [AZD7762]; conditions: top dose 2 µM
Experimental: as §1

GSK-650394 = compound: O=C(O)c1ccc(-c2c[nH]c3ncc(-c4ccccc4)cc23)cc1C1CCCC1 [GSK-650394]; conditions: top dose 16 µM; top dose inferred
Experimental: as §1

XAV 939 = compound: Oc1nc(-c2ccc(C(F)(F)F)cc2)nc2c1CSCC2 [XAV 939]; conditions: top dose 5 µM; top dose inferred
Experimental: as §1

| Cell Line | AUC (Bexarotene) | IC50 (Bexarotene) | AUC (NPK76-II-72-1) | IC50 (NPK76-II-72-1) | AUC (Etoposide) | IC50 (Etoposide) | AUC (BMS-345541) | IC50 (BMS-345541) | AUC (AZD7762) | IC50 (AZD7762) | AUC (GSK-650394) | IC50 (GSK-650394) | AUC (XAV 939) | IC50 (XAV 939) |
| --- | --- | --- | --- | --- | --- | --- | --- | --- | --- | --- | --- | --- | --- | --- |
| ES8 (Ewing sarcoma, adherent) | 0.937 | > 8 µM | 0.658 | 1.7 µM | 0.219 | 0.164 µM | 0.855 | 11.3 µM | 0.497 | 0.123 µM | 0.703 | 3.55 µM | 0.983 | > 5 µM |
| ESS-1 (endometrium, adherent) | 0.986 | > 8 µM | 0.99 | > 10.2 µM | 0.419 | 0.616 µM | 0.944 | > 16 µM | 0.559 | 0.178 µM | 0.845 | 9.87 µM | 0.987 | > 5 µM |
| EW-24 (Ewing sarcoma, semi-adherent) | 0.992 | > 8 µM | 0.968 | > 10.2 µM | 0.973 | > 16 µM | 0.983 | > 16 µM | 0.94 | > 2 µM | 0.98 | > 16 µM | 0.991 | > 5 µM |
| EoL-1-cell (haematopoietic neoplasm, suspension) | 0.865 | 5.72 µM | 0.5 | 0.638 µM | 0.314 | 0.325 µM | 0.848 | 9.84 µM | 0.026 | < 0.00781 µM | 0.761 | 5.07 µM | 0.983 | > 5 µM |
| FADU (head and neck, adherent) | 0.987 | > 8 µM | 0.978 | > 10.2 µM | 0.545 | 1.32 µM | 0.917 | > 16 µM | 0.603 | 0.237 µM | 0.95 | > 16 µM | 0.982 | > 5 µM |
| GRANTA-519 (B-cell lymphoma, suspension) | 0.984 | > 8 µM | 0.908 | > 10.2 µM | 0.59 | 1.71 µM | 0.845 | 9.88 µM | 0.594 | 0.22 µM | 0.982 | > 16 µM | 0.968 | > 5 µM |
| H2795 (mesothelioma, adherent) | 0.899 | > 8 µM | 0.834 | 6.53 µM | 0.863 | 13.5 µM | 0.862 | 13.4 µM | 0.598 | 0.231 µM | 0.987 | > 16 µM | 0.926 | > 5 µM |
| HCC-15 (lung squamous cell carcinoma, adherent) | 0.802 | 5.3 µM | 0.899 | > 10.2 µM | 0.733 | 5.69 µM | 0.9 | > 16 µM | 0.878 | > 2 µM | 0.91 | > 16 µM | 0.86 | > 5 µM |
| HCC-56 (large intestine, adherent) | 0.969 | > 8 µM | 0.884 | > 10.2 µM | 0.84 | 11.4 µM | 0.905 | > 16 µM | 0.715 | 0.515 µM | 0.88 | > 16 µM | 0.986 | > 5 µM |
| HSC-4 (head and neck, adherent) | 0.959 | > 8 µM | 0.971 | > 10.2 µM | 0.584 | 1.83 µM | 0.892 | > 16 µM | 0.487 | 0.114 µM | 0.952 | > 16 µM | 0.815 | 3.96 µM |
| HT-115 (large intestine, adherent) | 0.988 | > 8 µM | 0.989 | > 10.2 µM | 0.859 | 11.4 µM | 0.99 | > 16 µM | 0.973 | > 2 µM | 0.972 | > 16 µM | 0.991 | > 5 µM |
| HuP-T3 (pancreas, adherent) | 0.93 | > 8 µM | 0.926 | > 10.2 µM | 0.868 | > 16 µM | 0.891 | > 16 µM | 0.503 | 0.128 µM | 0.94 | > 16 µM | 0.975 | > 5 µM |
| HuP-T4 (pancreas, adherent) | 0.897 | > 8 µM | 0.842 | 7.85 µM | 0.543 | 1.32 µM | 0.701 | 3.82 µM | 0.753 | 0.703 µM | 0.645 | 2.58 µM | 0.869 | > 5 µM |
| IGR-1 (melanoma, adherent) | 0.947 | > 8 µM | 0.943 | > 10.2 µM | 0.595 | 1.76 µM | 0.725 | 3.96 µM | 0.93 | > 2 µM | 0.628 | 2.15 µM | 0.99 | > 5 µM |
| JSC-1 (B-cell lymphoma, suspension) | 0.973 | > 8 µM | 0.547 | 0.856 µM | 0.411 | 0.571 µM | 0.804 | 7.88 µM | 0.53 | 0.151 µM | 0.865 | 13.9 µM | 0.985 | > 5 µM |
| K5 (thyroid, adherent) | 0.924 | > 8 µM | 0.979 | > 10.2 µM | 0.839 | 10.2 µM | 0.921 | > 16 µM | 0.758 | 0.669 µM | 0.916 | > 16 µM | 0.937 | > 5 µM |
| KM12 (large intestine, adherent) | 0.86 | 7.7 µM | 0.89 | > 10.2 µM | 0.608 | 2.04 µM | 0.879 | > 16 µM | 0.471 | 0.103 µM | 0.402 | 0.525 µM | 0.984 | > 5 µM |
| KU-19-19 (bladder, adherent) | 0.874 | 7.75 µM | 0.987 | > 10.2 µM | 0.944 | > 16 µM | 0.883 | > 16 µM | 0.853 | 1.56 µM | 0.945 | > 16 µM | 0.978 | > 5 µM |
| KURAMOCHI (ovary, adherent) | 0.932 | > 8 µM | 0.905 | > 10.2 µM | 0.399 | 0.506 µM | 0.837 | 13.2 µM | 0.623 | 0.288 µM | 0.882 | > 16 µM | 0.963 | > 5 µM |

A lower IC50 marks a more sensitive line; a limit (>, <) means that the fit lies beyond the doses tested. The AUC spans the tested range (256-fold, ending at the top dose) of the same fit; values near 1 show little effect. For some assays here: A top dose marked as inferred was calculated from the reported fits.
